Measurements reported in the supplement of paper PMC8813932.
Counter-ions that a name gives are not always drawn. ± gives the standard deviation of the averaged measurements. The list shows a part of the results. Most values come without repeats; read them as rough.

How the values were obtained:
Experiment in all cases: log2 surviving fraction relative to plate median (drug vs vehicle, or drug+dl922-947 vs dl922-947 alone); ovarian cancer lines: OVCAR4 is platinum-sensitive while Ov4Cis resists cisplatin and Ov4Carbo carboplatin; higher = more cell survival
Conditions in all cases: compound concentration: 10 uM, 192 h
[1] = test system: OVCAR4
[2] = test system: Ov4Carbo
[3] = test system: Ov4Cis
[4] = dl922-947 oncolytic adenovirus co-treatment: MOI 10
[5] = dl922-947 oncolytic adenovirus co-treatment: none

| Structure (SMILES) | log2 surviving fraction [1, 4] | log2 surviving fraction [1, 5] | log2 surviving fraction [2, 4] | log2 surviving fraction [2, 5] | log2 surviving fraction [3, 4] | log2 surviving fraction [3, 5] |
| --- | --- | --- | --- | --- | --- | --- |
| N=C(N)N/N=C/c1c(Cl)cccc1Cl [Guanabenz acetate] | -0.277 ± 0.24 | -1.15 ± 0.87 | 0.471 | -1.45 | -0.6 | 0.00473 |
| Cc1[nH]c(=O)c(C#N)cc1-c1ccncc1 [Milrinone (Primacor)] | 1.05 ± 0.2 | -0.0981 ± 0.28 | 0.202 | -0.429 | 0.646 | 0.168 |
| COc1ccccc1OCC(O)CN1CCN(CC(=O)Nc2c(C)cccc2C)CC1 (centres undefined) [Ranolazine (Ranexa)] | 0.00103 ± 0.17 | 0.454 ± 0.25 | -1.14 | 1.22 | -0.578 | 0.334 |
| Cc1cccc(N(C)C(=S)Oc2ccc3ccccc3c2)c1 [Tolnaftate] | 0.609 ± 0.6 | -0.732 ± 1.1 | 0.355 | 0.675 | -0.0701 | 0.738 |
| C[C@@H]1CN(c2c(F)c(F)c3c(=O)c(C(=O)O)cn(C4CC4)c3c2F)C[C@H](C)N1 [Orbifloxacin] | -0.734 ± 0.53 | 0.0821 ± 0.44 | 0.433 | -0.289 | -1.28 | 0.0824 |
| CC(=O)N[C@@H](CS)C(=O)O [Acetylcysteine] | 0.0163 ± 0.99 | 0.234 ± 0.69 | 1.47 | 1.17 | -0.294 | -0.148 |
| Nc1nc2[nH]cnc2c(=S)[nH]1 [Thioguanine] | -4.36 ± 2 | -7.3 ± 3.2 | -4.08 | -9.75 | -3.24 | -5.98 |
| CCN(C)C(=O)Oc1cccc([C@H](C)N(C)C)c1 [Rivastigmine tartrate (Exelon)] | 0.00574 ± 0.48 | 0.115 ± 0.7 | -0.789 | -0.397 | 0.0179 | 0.701 |
| COc1ccc2[nH]cc(CCNC(C)=O)c2c1 [Melatonin] | 0.669 ± 0.042 | -1.84 ± 4 | 1.42 | 1.45 | 0.401 | 0.297 |
| COc1ccc(C(CN(C)C)C2(O)CCCCC2)cc1 (centres undefined) [Venlafaxine] | 0.23 ± 0.029 | 0.586 ± 0.32 | -0.822 | 0.892 | 0.165 | 0.522 |
| C[C@@H]1CC[C@H]2[C@@H](C)C(=O)O[C@@H]3O[C@@]4(C)CC[C@@H]1[C@]32OO4 [Artemisinin] | 0.473 ± 0.14 | -0.257 ± 0.26 | -0.426 | 1.11 | -0.0973 | 0.722 |
| CN1[C@@H]2CC[C@H]1C[C@@H](OC(=O)[C@H](CO)c1ccccc1)C2 [Hyoscyamine (Daturine)] | 0.104 ± 0.12 | 1.24 ± 0.17 | -0.855 | -0.659 | 0.74 | -0.824 |
| CC(C)(CO)[C@@H](O)C(=O)NCCC(=O)O [Pantothenic acid (pantothenate)] | -0.658 ± 0.16 | -0.126 ± 0.25 | 0.0285 | 1.79 | -0.741 | -0.366 |
| N=C(N)NS(=O)(=O)c1ccc(N)cc1 [Sulfaguanidine] | 0.247 ± 0.22 | -0.504 ± 0.86 | 0.503 | -0.0532 | -0.599 | 0.0985 |
| COC(=O)C1=C(C#N)NC(C)=C(C(=O)OC(C)C)C1c1cccc([N+](=O)[O-])c1 (centres undefined) [Nilvadipine (ARC029)] | -0.486 ± 0.52 | -1.37 ± 0.87 | 0.23 | -1.36 | -0.0285 | -0.629 |
| CS(=O)(=O)c1ccc(C(=O)Nc2ccc(Cl)c(-c3ccccn3)c2)c(Cl)c1 [Vismodegib (GDC-0449)] | 0.916 ± 0.16 | 0.566 ± 0.2 | 0.667 | 1.4 | 0.791 | 0.628 |
| CN(Cc1cc(Br)cc(Br)c1N)C1CCCCC1 [Bromhexine HCl] | 0.462 ± 0.012 | -0.0511 ± 0.52 | -1.12 | 0.367 | 1.43 | 0.173 |
| CC(N/C(=N\C#N)Nc1ccncc1)C(C)(C)C (centres undefined) [Pinacidil] | -0.268 ± 0.49 | -1.27 ± 2.5 | 0.632 | 0.263 | 0.429 | -8.45 |
| CCCCC(CC)CNC(=N)NC(=N)NCCCCCCNC(=N)NC(=N)NCC(CC)CCCC (centres undefined) [Alexidine HCl] | -10.8 ± 0.99 | -12.5 ± 7.7 | -8.99 | -12.3 | -10.4 | -15.9 |
| Nc1nc(Cl)nc2c1ncn2[C@@H]1O[C@H](CO)[C@@H](O)[C@@H]1F [Clofarabine] | -3.63 ± 0.87 | -3.49 ± 1.6 | -3.84 | -0.28 | -5.95 | -8.56 |

| Structure (SMILES) | log2 surviving fraction [1, 4] | log2 surviving fraction [1, 5] | log2 surviving fraction [2, 4] | log2 surviving fraction [2, 5] | log2 surviving fraction [3, 4] | log2 surviving fraction [3, 5] |
| --- | --- | --- | --- | --- | --- | --- |
| CC(=O)NS(=O)(=O)c1ccc(N)cc1 [sulfacetamide sodium] | 0.812 ± 0.28 | 0.421 ± 0.11 | 0.21 | 0.733 | 0.522 | -0.353 |
| O=P1(N(CCCl)CCCl)NCCCO1 (centres undefined) [Cyclophosphamide monohydrate] | 0.0588 ± 0.21 | -0.307 ± 1.1 | -0.696 | 0.92 | 0.536 | 0.762 |
| COC(=O)N[C@H](C(=O)N[C@@H](Cc1ccccc1)[C@@H](O)CN(Cc1ccc(-c2ccccn2)cc1)NC(=O)[C@@H](NC(=O)OC)C(C)(C)C)C(C)(C)C [Atazanavir sulfate] | 0.041 ± 0.91 | -0.565 ± 0.21 | -1.51 | -1.72 | -0.973 | 0.731 |
| COC(=O)C1=CO[C@@H](O)[C@@H]2C(CO)=CC[C@H]12 [Genipin] | 0.777 ± 0.3 | 0.451 ± 0.23 | 0.276 | 0.72 | 1.32 | 0.652 |
| N[C@@H](Cc1cc(I)c(Oc2ccc(O)c(I)c2)c(I)c1)C(=O)O [Liothyronine Sodium] | -0.919 ± 0.84 | 0.0158 ± 0.13 | -0.913 | -0.512 | 0.447 | -0.488 |
| COc1cc(C(C)=O)ccc1OCCCN1CCC(c2noc3cc(F)ccc23)CC1 [Iloperidone (Fanapt)] | 0.00183 ± 0.66 | -0.436 ± 0.041 | -0.13 | 0.265 | 0.0664 | 0.067 |
| CC(C)C[C@H](NC(=O)[C@@H](O)[C@H](N)Cc1ccccc1)C(=O)O [Ubenimex (Bestatin)] | -0.172 ± 0.48 | -0.684 ± 0.11 | -0.174 | -1.42 | -0.187 | -1.09 |
| COc1ccc(CN2CCN(C(c3ccc(F)cc3)c3ccc(F)cc3)CC2)c(OC)c1OC [Lomerizine HCl] | -0.664 ± 0.41 | 0.162 ± 1.9 | -0.0476 | -0.588 | -2.25 | -2.4 |
| CCCN1C[C@H](CSC)C[C@@H]2c3cccc4[nH]cc(c34)C[C@H]21 [Pergolide mesylate] | -0.464 ± 0.16 | -0.397 ± 0.3 | -0.275 | 0.62 | 0.174 | -1.26 |
| CCOC(=O)c1ccc(C#Cc2ccc3c(c2)C(C)(C)CCS3)nc1 [Tazarotene (Avage)] | -0.0307 ± 0.16 | 0.382 ± 0.023 | -0.304 | 0.674 | 0.0622 | 0.393 |
| Cc1ccc(Nc2nccc(N(C)c3ccc4c(C)n(C)nc4c3)n2)cc1S(N)(=O)=O [Pazopanib] | 0.798 ± 0.011 | 0.38 ± 0.61 | 1.9 | 0.00142 | 0.113 | 0.0949 |
| C#C[C@]1(O)CC[C@H]2[C@@H]3CCC4=CC(=O)CC[C@@H]4[C@H]3CC[C@@]21C [norethindrone] | 0.535 ± 0.24 | -0.486 ± 0.1 | -0.0089 | 1.37 | 0.839 | 0.598 |
| Nc1nc2c(ncn2COCCO)c(=O)[nH]1 [Acyclovir (Aciclovir)] | -0.386 ± 1.2 | 0.181 ± 0.62 | -0.509 | 0.396 | 0.598 | 0.57 |
| CC[C@H]1CN2CCc3cc(OC)c(OC)cc3[C@@H]2C[C@@H]1C[C@H]1NCCc2cc(OC)c(OC)cc21 [Emetine] | -8.56 ± 0.86 | -10.8 ± 7.2 | -5.73 | -11.3 | -4.86 | -12 |
| C=C1CC[C@H](O)C/C1=C/C=C1\CCC[C@]2(C)[C@@H]([C@H](C)CCCC(C)C)CC[C@@H]12 [Vitamin D3 (Cholecalciferol)] | -0.446 ± 0.31 | -0.603 ± 0.29 | 0.322 | -0.744 | 0.22 | 0.138 |
| O=C1OC(CN2CCOCC2)CN1/N=C/c1ccc([N+](=O)[O-])o1 (centres undefined) [Furaltadone HCl] | -0.292 ± 0.36 | -0.862 ± 0.6 | -0.536 | -0.387 | -0.2 | -0.355 |
| CCCCOc1cc(C(=O)OCCN(CC)CC)ccc1N [Oxybuprocaine HCl] | 0.229 ± 0.013 | -0.131 ± 0.38 | 0.11 | 1.18 | -0.0873 | 0.296 |
| O=C1CC[C@@H](C(=O)N2CSC[C@H]2C(=O)O)N1 [Pidotimod] | 1.1 ± 0.26 | -0.0587 ± 0.6 | -0.199 | 0.669 | 0.69 | 0.196 |
| CCN1CCCC1CNC(=O)c1cc(S(=O)(=O)CC)c(N)cc1OC (centres undefined) [Amisulpride] | 0.271 ± 0.05 | 0.79 ± 0.47 | 0.665 | 1.77 | 0.286 | 0.583 |
